Measurements taken from patent US9474790B2, “Stable, protracted GLP-1/glucagon receptor co-agonists for medical use” (Novo Nordisk A/S, priority 2013, dated 2016).
For at least one compound, name, drawing or mass did not settle the structure. Numbered stars: 1 amine (or outer) side, 2 acyl side, 3 side chain; on linkers, the order of the positions; unused ones are H or OH. Square brackets hold non-standard residues; d marks the D form. Side chains are listed from the residue outwards. Peptide text beside a SMILES is read from it. * marks the point of attachment. C18 diacid = O=C(O)CCCCCCCCCCCCCCCCC(=O)*; γGlu = O=C(O)[C@H](CCC(=O)[*:2])N[*:1]; AEEA = NCCOCCOCC(=O)O; Aib = CC(C)(N)C(=O)O

Assays:
[1] = Thioflavin T (ThT) fibrillation assay for physical stability; assay type: physicochemical; conditions: 250 μM in 10 mM HEPES buffer, pH 7.5, 37° C., shaking 960 rpm
Text: The purpose of this assay was to assess the physical stability of the glucagon derivatives of the invention in aqueous solutions.
Low physical stability of a peptide may lead to amyloid fibril formation, which is observed as well-ordered, thread-like macromolecular structures in the sample, which eventually may lead to gel formation. This has traditionally been measured by visual inspection of the sample. However, that kind of measurement is very subjective and depending on the observer. Therefore, the application of a small molecule indicator probe is much more advantageous. Thioflavin T (ThT) is such a probe and has a distinct fluorescence signature when binding to fibrils [Naiki et al; Anal. Biochem. 1989 177 244-249; LeVine; Methods. Enzymol. 1999 309 274-284].
The time course for fibril formation can be described by a sigmoidal curve with the following expression [Nielsen et al; Biochemistry 2001 40 6036-6046]:
Here, as depicted in FIG. 1, F is the ThT fluorescence at the time t. The constant t0 is the time needed to reach 50% of maximum fluorescence. The two important parameters describing fibril formation are the lag-time calculated by t0−2τ and the apparent rate constant kapp 1/τ.
Samples were prepared freshly before each assay. Each sample composition is described in the legends. The pH of the sample was adjusted to the desired value using appropriate amounts of concentrated NaOH and HCl. Thioflavin T was added to the samples from a stock solution in H2O to a final concentration of 1 μM.
Sample aliquots of 200 μl (250 μM of the glucagon derivative/analogue in 10 mM HEPES buffer, pH 7.5) were placed in a 96 well microtiter plate (Packard OptiPlate™-96, white polystyrene). Usually, four or eight replica of each sample (corresponding to one test condition) were placed in one column of wells. The plate was sealed with Scotch Pad (Qiagen).
Incubation at given temperature, shaking and measurement of the ThT fluorescence emission were done in a Fluoroskan Ascent FL fluorescence plate reader (Thermo Labsystems). The temperature was set to 37° C. and the plate was incubated with orbital shaking adjusted to 960 rpm with an amplitude of 1 mm. Fluorescence measurement was done using excitation through a 444 nm filter and measurement of emission through a 485 nm filter.
Each run was initiated by incubating the plate at the assay temperature for 10 min. The plate was measured every 20 minutes for a desired period of time. Between each measurement, the plate was shaken and heated as described.
After completion of the ThT assay the four or eight replica of each sample was pooled and centrifuged at 20000 rpm for 30 minutes at 18° C. The supernatant was filtered through a 0.22 μm filter and an aliquot was transferred to a HPLC vial.
The concentration of peptide in the initial sample and in the filtered supernatant was determined by reverse phase HPLC using an appropriate standard as reference. The percentage fraction the concentration of the filtered sample constituted of the initial sample concentration was reported as the recovery.
The measurement points were saved in Microsoft Excel format for further processing and curve drawing and fitting was performed using GraphPad Prism. The background emission from ThT in the absence of fibrils was negligible. The data points were typically a mean of four or eight samples.
The data set may be fitted to Eq. (1).

[2] = Chemical stability assessment by RP-UPLC; assay type: physicochemical; conditions: 333 μM, 8 mM phosphate buffer pH 7.3, 37° C. vs 5° C.
Protocol: The purpose of this assay was to assess the chemical stability of the glucagon derivatives of the invention in aqueous solutions.
Chemical stability of glucagon derivatives or analogues was investigated by RP-UPLC separation and UV detection. Lyophilized samples were dissolved in a 8 mM Phosphate buffer pH 8.6, followed by adjustment to pH 7.3.using HCl to a final concentration of 333 μM. Samples were incubated for 14 days at 5° C. and 37° C. followed by RP-UPLC analysis. Purity was defined as the area percentage of the main peak in relation to the total area of all integrated peaks in each chromatogram. Purity loss after 14 days at 37° C. was determined as the difference in purity between the samples incubated at 5° C. and 37° C., divided by the purity of the sample after incubation for 14 days at 5° C.
RP-UPLC analysis was performed using a Waters BEH130 2.1 mm×150 mm, 1.7 μm column operated at 50° C. and a flow rate of 0.4 mL/min using a mobile phase system consisting of A: 0.05% TFA in MQ-water B: 0.05% TFA in Acetonitrile. UV-detection was performed at 215 nm. The typical gradient profile used for most of the samples is shown below.
For some individual derivatives or analogues eluting at substantially different retention times compared with the majority of derivatives or analogues, some adjustments to the gradient profile were made to better enable purity assessment comparison across samples. The data confirmed the improved chemical stability of the glucagon derivatives of this invention.

| SMILES | THT assay Lag time (Ex. 76) [1] | Purity loss; 14 days at 37° C. [2] |
| --- | --- | --- |
| CC(C)C[C@H](NC(=O)[C@H](Cc1ccc(O)cc1)NC(=O)[C@H](CCCCN)NC(=O)[C@H](CO)NC(=O)[C@H](CC(C)C)NC(=O)[C@H](CC(=O)O)NC(=O)[C@H](CO)NC(=O)[C@@H](NC(=O)[C@H](Cc1ccccc1)NC(=O)[C@@H](NC(=O)CNC(=O)[C@H](CCC(N)=O)NC(=O)C(C)(C)NC(=O)[C@@H](N)Cc1c[nH]cn1)[C@@H](C)O)[C@@H](C)O)C(=O)N[C@@H](CCC(=O)O)C(=O)N[C@@H](CO)C(=O)N[C@@H](CCCNC(=N)N)C(=O)N[C@@H](CCCNC(=N)N)C(=O)N[C@@H](C)C(=O)N[C@@H](CCCNC(=N)N)C(=O)N[C@@H](CC(=O)O)C(=O)N[C@@H](Cc1ccccc1)C(=O)N[C@H](C(=O)N[C@@H](CCC(N)=O)C(=O)N[C@@H](Cc1c[nH]c2ccccc12)C(=O)N[C@@H](CC(C)C)C(=O)N[C@@H](CC(C)C)C(=O)N[C@@H](CCCCNC(=O)COCCOCCNC(=O)COCCOCCNC(=O)CC[C@H](NC(=O)CC[C@H](NC(=O)CC[C@H](NC(=O)CCCCCCCCCCCCCCCCC(=O)O)C(=O)O)C(=O)O)C(=O)O)C(=O)N[C@H](C(N)=O)[C@@H](C)O)C(C)C [Example 57, N^ε28-[2-[2-[2-[(2-[2-[2-[[(4S)-4-carboxy-4-[[(4S)-4-carboxy-4-[[(4S)-4-carboxy-4-(17-carboxyheptadecanoylamino)butanoyl]amino]butanoyl]amino]butanoyl]amino]ethoxy]ethoxy]acetyl]amino]ethoxy]ethoxy]acetyl]-[Aib2,Leu10,Glu15,Arg20,Leu27,Lys28]-Glucagon amide] (H-H[Aib]QGTFTSDLSKYLESRRARDFVQWLLK([AEEA-AEEA-γGlu-γGlu-γGlu-C18 diacid])T-NH2; N-terminus assumed) | 45 h | 1% |
| CC(C)C[C@H](NC(=O)[C@H](Cc1ccc(O)cc1)NC(=O)[C@H](CCCCN)NC(=O)[C@H](CO)NC(=O)[C@H](CC(C)C)NC(=O)[C@H](CC(=O)O)NC(=O)[C@H](CO)NC(=O)[C@@H](NC(=O)[C@H](Cc1ccccc1)NC(=O)[C@@H](NC(=O)CNC(=O)[C@H](CCC(N)=O)NC(=O)C(C)(C)NC(=O)[C@@H](N)Cc1c[nH]cn1)[C@@H](C)O)[C@@H](C)O)C(=O)N[C@@H](CC(=O)O)C(=O)N[C@@H](C)C(=O)N[C@@H](CCCNC(=N)N)C(=O)N[C@@H](CCCNC(=N)N)C(=O)N[C@@H](C)C(=O)N[C@@H](CCCNC(=N)N)C(=O)N[C@@H](CC(=O)O)C(=O)N[C@@H](Cc1ccccc1)C(=O)N[C@H](C(=O)N[C@@H](CCC(N)=O)C(=O)N[C@@H](Cc1c[nH]c2ccccc12)C(=O)N[C@@H](CC(C)C)C(=O)N[C@@H](CC(C)C)C(=O)N[C@@H](CCCCNC(=O)COCCOCCNC(=O)COCCOCCNC(=O)CC[C@H](NC(=O)CC[C@H](NC(=O)CC[C@H](NC(=O)CCCCCCCCCCCCCCCCC(=O)O)C(=O)O)C(=O)O)C(=O)O)C(=O)N[C@H](C(N)=O)[C@@H](C)O)C(C)C [Example 58, N^ε28-[2-[2-[2-[[2-[2-[2-[[(4S)-4-carboxy-4-[[(4S)-4-carboxy-4-[[(4S)-4-carboxy-4-(17-carboxyheptadecanoylamino)butanoyl]amino]butanoyl]amino]butanoyl]amino]ethoxy]ethoxy]acetyl]amino]ethoxy]ethoxy]acetyl]-[Aib2,Leu10,Ala16,Arg20,Leu27,Lys28]-Glucagon amide] (H-H[Aib]QGTFTSDLSKYLDARRARDFVQWLLK([AEEA-AEEA-γGlu-γGlu-γGlu-C18 diacid])T-NH2; N-terminus assumed) | 45 h | 2% |
| CC(C)C[C@H](NC(=O)[C@H](Cc1ccc(O)cc1)NC(=O)[C@H](CCCNC(=N)N)NC(=O)[C@H](CO)NC(=O)[C@H](CC(C)C)NC(=O)[C@H](CC(=O)O)NC(=O)[C@H](CO)NC(=O)[C@@H](NC(=O)[C@H](Cc1ccccc1)NC(=O)[C@@H](NC(=O)CNC(=O)[C@H](CCC(N)=O)NC(=O)C(C)(C)NC(=O)[C@@H](N)Cc1c[nH]cn1)[C@@H](C)O)[C@@H](C)O)C(=O)N[C@@H](CC(=O)O)C(=O)N[C@@H](C)C(=O)N[C@@H](CCCNC(=N)N)C(=O)N[C@@H](CCCNC(=N)N)C(=O)N[C@@H](C)C(=O)N[C@@H](CCCNC(=N)N)C(=O)N[C@@H](CC(=O)O)C(=O)N[C@@H](Cc1ccccc1)C(=O)N[C@H](C(=O)N[C@@H](CCC(N)=O)C(=O)N[C@@H](Cc1c[nH]c2ccccc12)C(=O)N[C@@H](CC(C)C)C(=O)N[C@@H](CC(C)C)C(=O)N[C@@H](CCCCNC(=O)CC[C@H](NC(=O)CC[C@H](NC(=O)CC[C@H](NC(=O)CCCCCCCCCCCCCCCCC(=O)O)C(=O)O)C(=O)O)C(=O)O)C(=O)N[C@H](C(N)=O)[C@@H](C)O)C(C)C [Example 62, N^ε28-[(4S)-4-carboxy-4-[[(4S)-4-carboxy-4-[[(4S)-4-carboxy-4-(17-carboxyheptadecanoylamino)butanoyl]amino]butanoyl]amino]butanoyl]-[Aib2,Leu10,Arg12,Ala16,Arg20,Leu27,Lys28]-Glucagon amide] (H-H[Aib]QGTFTSDLSRYLDARRARDFVQWLLK([γGlu-γGlu-γGlu-C18 diacid])T-NH2; N-terminus assumed) | 45 h | 2% |
| CC(C)C[C@H](NC(=O)[C@H](Cc1ccc(O)cc1)NC(=O)[C@H](CCCCN)NC(=O)[C@H](CO)NC(=O)[C@@H](NC(=O)[C@H](CC(=O)O)NC(=O)[C@H](CO)NC(=O)[C@@H](NC(=O)[C@H](Cc1ccccc1)NC(=O)[C@@H](NC(=O)CNC(=O)[C@H](CCC(N)=O)NC(=O)C(C)(C)NC(=O)[C@@H](N)Cc1c[nH]cn1)[C@@H](C)O)[C@@H](C)O)C(C)C)C(=O)N[C@@H](CC(=O)O)C(=O)N[C@@H](C)C(=O)N[C@@H](CCCNC(=N)N)C(=O)N[C@@H](CCCNC(=N)N)C(=O)N[C@@H](C)C(=O)N[C@@H](CCC(N)=O)C(=O)N[C@@H](CC(=O)O)C(=O)N[C@@H](Cc1ccccc1)C(=O)N[C@H](C(=O)N[C@@H](CCC(N)=O)C(=O)N[C@@H](Cc1c[nH]c2ccccc12)C(=O)N[C@@H](CC(C)C)C(=O)N[C@@H](CC(C)C)C(=O)N[C@@H](CCCCNC(=O)COCCOCCNC(=O)COCCOCCNC(=O)CC[C@H](NC(=O)CC[C@H](NC(=O)CC[C@H](NC(=O)CCCCCCCCCCCCCCCCC(=O)O)C(=O)O)C(=O)O)C(=O)O)C(=O)N[C@H](C(N)=O)[C@@H](C)O)C(C)C [Example 70, N^ε28-[2-[2-[2-[[2-[2-[2-[[(4S)-4-carboxy-4-[[(4S)-4-carboxy-4-[[(4S)-4-carboxy-4-(17-carboxyheptadecanoylamino)butanoyl]amino]butanoyl]amino]butanoyl]amino]ethoxy]ethoxy]acetyl]amino]ethoxy]ethoxy]acetyl]-[Aib2,Val10,Ala16,Leu27,Lys28]-Glucagon amide] (H-H[Aib]QGTFTSDVSKYLDARRAQDFVQWLLK([AEEA-AEEA-γGlu-γGlu-γGlu-C18 diacid])T-NH2) | 45 h | 2% |
